Measured values published in the supplement of paper PMC10338343.
± gives the standard deviation. Only a part is listed here, and it is no random draw.

The sequences below were run on MIWI (PIWIL1) piRISC loaded with piRNA #1 (30 nt) (assay: pre-steady-state target cleavage rate (min^-1); MIWI and MILI are mouse PIWI proteins and EfPiwi is from a freshwater sponge; tags in brackets are library labels; higher = faster piRNA-guided slicing of the target). Details: guide: piRNA #1 5'p-UGAGGUAGUAGGUUGUAUAGUAUCCAGAGG; auxiliary factor: 500 nM mouse GTSF1.
Outline: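 In Cleave-'n-Seq, a transcribed, DNA-blocked target RNA library (0.1 nM) was combined with 1 nM active affinity-purified piRISC bearing one synthetic guide, with or without 500 nM GTSF1 partner protein. Reactions ran in HEPES–potassium acetate buffer at 33 °C for 0–8 or 0–960 min. Uncleaved targets were sequenced and normalised to depth and to weakly complementary targets, three trials were pooled, and k3 was capped at 0.0001 min^-1. The pre-steady-state cleavage rate was obtained by fitting a burst-and-steady-state model.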

| Sequence | pre-steady-state target cleavage rate |
| --- | --- |
| GGAGACGAUACUAUUGAACCUACUACCUCA | 0.904 ± 0.067 |
| GGAGAGGAAACUAUACAACCUUCUACCUCA | 0.626 ± 0.043 |
| GGAGAGGAUACUAUACAACCAACUACCACA | 0.103 ± 0.0098 |
| GCUCUGGAAUACUAUACAACCUACUACCUCA | 1.92 ± 0.1 |
| GGACUGGUUACUAUACAACCUAGUACCUCA | 0.432 ± 0.062 |
| GCUCUGGUUACUAUACAACCUAGUACCUCA | 0.6 ± 0.07 |
| GGAGACCAUACUAUACAACCUACUACCUCA [g2:g23:cont:t1A] | 1.5 ± 0.12 |
| GCUCUGGUAUCUAUACAACCUACUACCUCA | 1.78 ± 0.095 |
| GGUCUGGAUACUAUACAACCUACAAGCUCA | 0.00458 ± 0.0032 |
| GCUCUGGAUACUAUACAUCCUACUACCUCA | 1.67 ± 0.091 |
| GCUCUGGAUUCUAUACAUCCUACUACCUCA | 1.31 ± 0.082 |
| GGAGUGGAUACUAUACAACCUACUACCGCA | 0.238 ± 0.024 |
| GGAGACCUUACUAAACAACCUAGUACCUCA | 0.198 ± 0.027 |
| GGAGACCUAUCUUUACAACCUACUACCACA | 0.129 ± 0.03 |
| GGUCUGGAUACUAUACAACCUACUACCGUCA | 0.128 ± 0.019 |
| GGAGAGGAUACUAAAGAACCUACUACCUCA | 1.23 ± 0.079 |
| GGAGACGAUACUAUACGACCUACUACCUCA | 1.26 ± 0.063 |
| GGAGACCUUACUAUACAACCUACUACCUCC [g2:g22:cont:t1C] | 1.25 ± 0.072 |
| CCAGUGGAUACUAUACAACCUACUACCUCA | 2.01 ± 0.11 |
| GGAGACGAUACUAUACUUGCUACUACCUCA | 0.057 ± 0.01 |

| Sequence | pre-steady-state target cleavage rate |
| --- | --- |
| GGUCUGGAUACUAUACAACCUUCUACCUCA | 0.689 ± 0.034 |
| GGAGACGAAACAAUACAACCUACUACCUCA | 0.543 ± 0.097 |
| GGACUGGAUUCUAUACAAGCUACUACCUCA | 1.1 ± 0.064 |
| GGAGACCUUACUAUACAACCUACGACCUCA | 0.817 ± 0.083 |
| GGUCUGGAUACUAUACACCUACUACCUCA | 0.284 ± 0.033 |
| GGAGACCUAUCUAAACAACCUACUACGUCA | 0.0476 ± 0.011 |
| CCUCUGGAUACUAUACGACCUACUACCUCA | 1.52 ± 0.086 |
| GCUCUGGAUAGUAUACAACCAACUACCUCA | 0.127 ± 0.015 |
| GGAGUGGAAACUAUACAUCCUACUACCUCA | 1.12 ± 0.062 |
| GGACUGGAUAGUAUAGAACCUACUACCUCA | 0.983 ± 0.069 |
| GGAGACCUAUGUAUACUACCUACUACCUCA | 0.00454 ± 0.0015 |
| GGAGACCAUACUAUACAACCUUCUUCCUCA | 0.177 ± 0.021 |
| CCUCUGGAUACUAUACAACCAACUUCCUCA | 0.0493 ± 0.01 |
| GGAGACCAUACUAUAGAACCUACUACGUCA | 0.392 ± 0.05 |
| GGUCUGGAUACUAUACAACCUUCAACCUCA | 0.16 ± 0.024 |
| GGUCUGGAAACUAUACAAGCUACUACCUCA | 1.1 ± 0.058 |
| GCUCUGGUAACUAUACAACCUACUACCUCA | 1.81 ± 0.12 |
| GGAGACCUAUGAUAUGUUGCUACCUACCUCA | < 0.0001 |
| GGAGACCUAUGUAUACAACAUACUACCUCA | 0.0122 ± 0.003 |
| CCACUGGAUACUAUACAACCUACUACCUGA | 0.806 ± 0.081 |
